Results taken from ChEMBL document CHEMBL4888484, “Replenishing the malaria drug discovery pipeline: Screening and hit evaluation of the MMV Hit Generation Library 1 (HGL1) against asexual blood stage Plasmodium falciparum ,using a nano luciferase reporter read-out” (2022).
Hit rate of the full screen: of about 150,000 compounds, about 540 (0.36%) showed an effect of 50% or more. The list shows a part of the results.

Test system: Plasmodium falciparum
Assay: Primary screen in NF54 nanoGlo assay, in single point, at 2uM, 72h; a lower Z score goes with more inhibition
Assay type: functional, Erythrocyte
Settings: timepoint 72 hour

| Compound | % Inhibition | Z score |
| --- | --- | --- |
| O=C(NCCc1ccsc1)N[C@H]1CCOC2(CCOCC2)C1 | 2% | -0.31 |
| O=C(Nc1nnnn1C1CC1)[C@H]1CCCO1 | -4% | 0.44 |
| CCc1cccc(NC(=O)c2ncn3c2C(=O)N(C2CC2)[C@](C)(C(=O)NCc2ccc(F)cc2)C3)c1 | -14% | 1.37 |
| O=C(NCC1CC1)[C@]1(F)CCCN(Cc2ccc3[nH]ccc3c2)C1 | -17% | 1.47 |
| C[C@H](Nc1ncc(Cl)cn1)C(=O)NC1CCCC1 | -2% | 0.35 |
| CC(C)n1ccnc1-c1cc(O)cc(CC[C@H]2CCCCN2)c1 | -1% | 0.08 |
| COC(=O)c1ccc(C)c(NC(=O)c2cc(C)n(C)c2C)c1 | -10% | 1.05 |
| CCN(C)C(=O)C1CN(C(=O)NC(C)(C)C)CC1c1cc(OC)c(OC)c(OC)c1 (stereo unspecified) | -9% | 1 |
| COc1ccc(-n2ccnc(NC(=O)c3cccc(F)c3)c2=O)cc1 | 3% | -0.39 |
| N#Cc1c(F)cccc1NCC(F)(F)CN | -7% | 1.19 |
| O=C(Nc1nc(-c2ccc3c(c2)OCCO3)cs1)c1ccc(Cl)s1 | -8% | 1.55 |
| COCCN(CC1CN(Cc2ccsc2)CC1c1cccc(F)c1)C(=O)C(C)C (stereo unspecified) | 30% | -0.45 |
| COCC(=O)N1CCC2(CCC(=O)N(CC3CC3)CC2)CC1 | -13% | 1.51 |
| CS(=O)(=O)c1ccc(Cl)c(S(=O)(=O)N2CC(N3CCNC3=O)C2)c1 | -4% | 0.72 |
| Cc1ccc(OC2CCN(C(=O)c3cn(C4CCNCC4)nn3)CC2)cc1C | -6% | 1.1 |
| CC[C@H](C)N(CC(=O)Nc1cccc(C)c1C)C(=O)c1cscn1 | -2% | 0.3 |
| O=C(Cn1ccccc1=O)N1CC[C@@]2(CCCN(CC3CC3)C2=O)C1 | 2% | -0.33 |
| c1ccc(CNc2nnc(-c3ccco3)o2)cc1 | -22% | 2.26 |
| O=C(c1c(F)cccc1F)N1CCN(c2nc3nccc(-c4cccs4)n3n2)CC1 | 5% | -0.52 |
| COCCN1CCC[C@H](NC(=O)c2cn(C)nc2COC)C1 | -4% | 0.52 |
| CCCc1[nH]nc(-c2ccccc2OC)c1NC(=O)c1ccc2c(c1)OCO2 | 7% | -0.91 |

| Compound | % Inhibition | Z score |
| --- | --- | --- |
| Cc1ccc(C2CN(C(=O)c3ccccc3C)CC2C(=O)NCc2ccccn2)cc1 (stereo unspecified) | -10% | 1.54 |
| Cc1noc(C)c1CC(=O)N1CC[C@H](n2cc(COc3cnccn3)nn2)C1 | -8% | 1.14 |
| CCC(CC)(C(=O)N1CC[C@H](OC(F)F)C1)c1ccc(OC)c(OC)c1 | -29% | 3.41 |
| Cc1nc(-c2ccc(C)c(-n3cc(C(=O)Nc4ccc(F)c(Cl)c4)c(C)n3)c2)no1 | -6% | 0.68 |
| Cc1nc([C@H](NC(=O)c2cnsn2)c2ccc(Cl)cc2)no1 | -2% | 0.27 |
| Cc1ccc(C)n1[C@@H](C)C(=O)N1CCCC1 | -8% | 1.09 |
| c1ncnc(NCCCCN2CCCCCC2)n1 | -3% | 0.56 |
| CC(C)NC(=O)[C@@H]1C[C@@H](NC2CCN(Cc3ccccc3)CC2)CN1Cc1ccccc1Cl | 6% | -0.77 |
| CCCCCOCC(=O)N1C2CCCC1CC(F)(F)C2 | -9% | 1.22 |
| COc1cccc(NS(=O)(=O)c2c(C)c(-c3nnc(C4CC4)o3)n(C)c2C)c1 | -6% | 0.8 |
| CCC(CC)C(=O)N1CCc2cc(S(=O)(=O)N3CCOCC3)ccc21 | -5% | 0.48 |
| Cc1c(C(=O)OCc2ccccc2)sc(=S)n1-c1ccc(Cl)cc1 | -19% | 3.52 |
| CN1CCCOc2cccc(c2)[C@@H]2N(C(=O)CCn3cncn3)CC[C@]23C(=O)N(CC1=O)c1ccccc13 | -17% | 1.97 |
| CCn1c(C2CCN(C(=O)Nc3ccccc3Cl)CC2)nn(CCOC)c1=O | 14% | -1.57 |
| CCCc1cnc(NCCn2cnc(C)c2C)nc1 | -10% | 1.07 |
| NC(=O)CN1CCN(Cc2nc(-c3cccs3)no2)CC1 | -16% | 2.78 |
| COc1cccc2c(=O)n([C@H]3CCCC[C@@H]3O)cnc12 | 6% | -1.2 |
| Cc1nc(NCCc2ccccc2F)cc([C@H]2C[C@@H](N)C2)n1 | 3% | -0.58 |
| CN(CC1CCCCC1)C(=O)COc1ccc(C#N)c(F)c1 | -19% | 3.54 |
| C[C@]1(CO)CCCN(c2nc(-c3ccccc3)nc3c2CCNCC3)C1 | -11% | 1.98 |
| CCCN(CCC)Cc1ccc(C(=O)N2CC=CC2)cc1 | 4% | -0.46 |

| Compound | % Inhibition | Z score |
| --- | --- | --- |
| O=c1[nH]nc(-c2ccccc2)cc1Cc1ccc2c(c1)OCO2 | -16% | 2.35 |
| COc1ccc(CN2CCc3c(c(=O)n4ncc(C(=O)N5CCOCC5)c4n3C)C2)cc1 | -15% | 1.35 |
| O=C(NC1CCCc2c(O)cccc21)C1COCCN1CC(F)F (stereo unspecified) | -13% | 2.79 |
| O=C(c1nnn2c1c(=O)[nH]c1cc(F)ccc12)N1CCN(c2ccc(F)cc2)CC1 | 7% | -1.27 |
| CCc1nn(C)cc1CNC(=O)[C@@](O)(CC)c1cccc(Cl)c1 | -10% | 1.3 |
| O=C1NCCN2CCN(Cc3cnc4c(-c5ccccc5)cnn4c3)C[C@@H]12 | -5% | 0.59 |
| O=C(c1ccccc1)c1ccc2n1CC[C@H]2C(=O)N1CCC(N2CCCCC2)CC1 | 30% | -3.4 |
| O=C(c1cc(-c2ccoc2)n[nH]1)N1CCC[C@H](N2CCOCC2)CC1 | -10% | 1.41 |
| CCCCCOCC(=O)N1CC[C@H](c2ccc3cccnc3n2)C1 | 0% | -0.05 |
| O=C(Nc1nc(-c2ccccn2)cs1)c1ccc2ccccc2n1 | -3% | 0.44 |
| Cc1cc(CN(C)c2cc(NCC3CC3)ncn2)no1 | -10% | 1.5 |
| O=C(O)[C@H]1CCN(C(=O)NCCOCc2ccc(Cl)cc2Cl)C1 | -17% | 2.03 |
| CCc1nc(N(C)C[C@H]2CC(=O)N(C(C)(C)C)C2)no1 | -5% | 0.8 |
| CN(C(=O)C[C@H]1CCCOC1)c1ccc(Br)cc1Cl | 2% | -0.27 |
| CCOc1ncccc1CNC(=O)c1scnc1C | -7% | 1.47 |
| O=C(Cn1cc(-c2ccccc2)ncc1=O)NC[C@@H]1CCCN2CCCC[C@H]12 | -8% | 0.97 |
| CCN(CC)C(=O)CN1C(=O)C2(OCC(C)(c3ccccc3)CO2)c2ccccc21 (stereo unspecified) | -9% | 1.04 |
| O=C(NCc1ccc(F)c(Cl)c1)C1CCN(c2cnc3nccnc3c2)CC1 | 9% | -1.64 |
| O=C1C2C(C(=O)N1c1cccc3ccccc13)C1(Br)c3ccccc3C2(Br)c2ccccc21 (stereo unspecified) | 5% | -0.78 |
| Cc1ccc(-c2nc(CC(=O)N(c3ccc(N(C)C)cc3)[C@@H](C)c3ccccn3)cs2)o1 | 5% | -0.64 |
| COc1ccc(-c2nn3c(nc2=O)-c2ccccc2NC32CC3CCC2C3)cc1 (stereo unspecified) | 3% | -0.26 |

| Compound | % Inhibition | Z score |
| --- | --- | --- |
| C[C@@H](Cc1ccsc1)N(C)S(=O)(=O)c1cnn(C)c1 | 4% | -0.42 |
| Cc1n[nH]c2c1CN(CC(=O)N1C[C@@H](C)O[C@@H](C)C1)CC2 | 0% | 0.02 |
| Cc1ccc(C(=O)N2CCC3(CCN(C)C3=O)CC2)cc1Cl | -8% | 1.36 |
| Cc1ccc(F)cc1NC(=O)Cn1nc(N2CCC(C)CC2)c2ccccc2c1=O | 2% | -0.29 |
| C[C@H](O)c1cn(CC(=O)NCC2CCC(C(C)(C)C)CC2)nn1 (stereo partly specified) | -2% | 0.21 |
| CCn1ccc(C(=O)N2CC[C@H](n3cc(COCc4ccccc4)nn3)C2)n1 | -16% | 2.37 |
| O=C(NCCc1ccccc1F)c1cn(C2CCCCC2)nn1 | -3% | 0.49 |
| O=C1C2ON(c3ccccc3)C(c3ccccc3F)C2C(=O)N1c1cccc(-c2ccccc2)c1 (stereo unspecified) | 7% | -0.91 |
| CCCCN(CC(F)(F)F)C(=O)c1cccc(N)c1 | -1% | 0.19 |
| COc1ccc(OC)c(CNC(=O)c2ccc(C)c(-n3nnc4cccnc43)c2)c1 | -10% | 2.04 |
| CCCC(=O)N1CCN(Cc2ccc(F)c(Cl)c2)[C@@H]2CS(=O)(=O)C[C@@H]21 | -19% | 2.11 |
| O=C(NC1(C(=O)O)CCC1)c1ccc(CN2CCc3ccccc3C2)o1 | -10% | 1.1 |
| COc1cc(OC)cc(C(=O)N2C[C@@H]3CC[C@H]2CN(Cc2ccccn2)C3)c1 | -8% | 1.29 |
| CC[C@@](C)(C#N)NC(=O)c1cccc(S(C)(=O)=O)c1 | -2% | 0.32 |
| O=C(Nc1ccc2c(c1)OCO2)C1CCN(C(=O)C2c3ccccc3Oc3ccccc32)CC1 | -6% | 0.67 |
| Cc1ccc(-c2nc(-c3c(C)ncc4c3CCNC4)no2)cn1 | -5% | 0.41 |
| CC1(S(=O)(=O)N2CC(c3ncc(C4CC4)cn3)C2)CC1 | 7% | -1.18 |
| N#Cc1ncn(Cc2sc3ccccc3c2Cl)n1 | 4% | -0.41 |
| CCOCCOc1ccc(-c2nc(=O)c(CCC(=O)N3CCOCC3)n[nH]2)cc1 | 3% | -0.37 |
| CCn1nccc1-c1nc(C)cc(C2CCC2)n1 | -4% | 0.42 |
